# Inconclusive means that the source gave no clear call. Such entries were picked first, then a sample of the others. Potencies of inconclusive entries are doubtful fits and often do not repeat. Activity calls are given as the source filed them. Calls come from the whole dose curve; as a rule, active = well fitted cell-killing curve with a large enough effect in the repeat runs; inconclusive = weak or mixed curves; inactive = no such curve, though single readings can be large or run the other way.
# Assay: qHTS assay for identifying genotoxic compounds that show differential cytotoxicity against isogenic chicken DT40 cell lines with known DNA damage response pathways - Rad54/Ku70 mutant cell line (AID 743015); note: nearly all actives have a fitted effect of over 60% in size
# Details: DT40 Rad54/Ku70 mutant viability, CellTiter-Glo, 40 h; activity change, negative = cytotoxicity: at 66.8 µM (top of the series) unless noted
# Source text: National Center for Advancing Translational Sciences [NCATS]
# NIH Chemical Genomics Center [NCGC]
# U.S. Environmental Protection Agency [EPA]
# National Institutes of Environmental Health Sciences [NIEHS]
# National Toxicology Program [NTP]
# U.S. Food and Drug Administration [FDA]
# DNA repair pathways play a critical role in cellular homeostasis by repairing DNA damage induced by endogenous processes and xenobiotics. Isogenic chicken DT40 cell lines deficient in different DNA repair pathways can be used to identify genotoxic compounds and aid in characterizing the nature of the DNA damage induced. Two DNA repair-deficient cell lines with disrupted genes, Rad54/Ku70 or Rev3, were used to screen the Tox21 10K compound library. Possible genotoxicity was based on the presence of a significant increase in cytotoxicity in one or more of the DNA repair-deficient cell lines compared to that observed in the parental DNA repair-proficient cell line. CellTiter Glo viability assay (Promega, Madison, WI) was used to measure cell viability in these cells after compound treatment. This assay includes the data from the Rad54/Ku70 mutant cell line.
# Tox21 Assay Protocol Summary:
# 300 DT40 mutant cells in 5 uL/well were dispensed into white, solid-bottom 1536-well plates using a Multidrop Combi (ThermoFisher Scientific, Waltham, MA) dispenser. After the assay plates were incubated at 37 C/5% CO2 for approximately 0.5 hour, 23 nL of compounds dissolved in DMSO, positive controls or DMSO only was transferred into the assay plate by a pintool work station (Kalypsys, San Diego, CA). The assay plates were incubated at 37 C/5% CO2 for 40 hours. After 5 uL per well of CellTiter-Glo reagent was added into each well of the assay plates, the plates were incubated for 30 min at room temperature and the luminescence intensity of the plates was measured using a ViewLux (PerkinElmer, Shelton, CT) plate reader.
# % is set by controls: 0 for no effect and ±100 for the full control effect; potency is the fitted concentration of half-maximal effect; tags give direction and shape of the fitted curve.
SMILES,Potency,"activity change, negative = cytotoxicity"
c1cc(CCCc2ccncc2)ccn1,inconclusive: 61.1 µM [cytotoxic],–
CC[C@]1(O)CC2CN(CCc3c([nH]c4ccccc34)[C@@](C(=O)OC)(c3cc4c(cc3OC)N(C)[C@H]3[C@@](O)(C(N)=O)[C@H](O)[C@]5(CC)C=CCN6CC[C@]43[C@@H]65)C2)C1 (stereo not given in full),active: 0.0596 µM,–
C#CCOc1ccc2c(C)cc(=O)oc2c1,"inconclusive: 33.5 µM [cytotoxic, partial curve, poor fit]",–
CCCC(=O)C(CC)Sc1ccoc1C (stereo not given),–,inconclusive: -51%
N[C@@H](CCC(=O)N[C@@H](CS)C(=O)NCC(=O)O)C(=O)O,–,inactive: -18.5%
Cc1ccc(C)c(S(=O)(=O)O)c1,inactive,–
FC(F)(F)c1ccc(Cl)cc1Cl,–,inactive: 7.33%
CCCCCCCCCCCCCCCCN(C)C,"inconclusive: 2.74 µM [cytotoxic, single point]",–
CC(=O)OC(C)(C)Cc1ccccc1,–,inconclusive: -72.7%
CN[C@@H]1[C@@H](O)[C@@H](O[C@@H]2[C@@H](O)[C@H](O[C@H]3O[C@H](CN)[C@@H](O)[C@H](O)[C@H]3O)[C@@H](N)C[C@H]2NC(=O)C(O)CN)OC[C@]1(C)O (stereo not given in full),–,inactive: 4.79%
CCCC[N+](C)(CCCC)CCCC,"inconclusive: 47.6 µM [cytotoxic, partial curve]",–
CCN(CC)CCn1c(=O)c(Cc2ccc(OC)cc2)nc2ccccc21,"inconclusive: 33.5 µM [cytotoxic, single point]",–
CC(C)CN(C[C@@H](O)[C@H](Cc1ccccc1)NC(=O)O[C@@H]1CCOC1)S(=O)(=O)c1ccc(N)cc1,"inconclusive: 33.5 µM [cytotoxic, single point]",–
CN(C)CC[C@@H](c1ccc(Br)cc1)c1ccccn1,inconclusive: 33.5 µM [cytotoxic],–
COc1ccc(Cc2cnc(N)nc2N)cc1OC,"inconclusive: 33.5 µM [cytotoxic, single point]",–
CC1(C)C2=CCCC(C)(C)[C@]23CC[C@H]1C3,active: 30.6 µM,–
CC(=O)OCC(=O)[C@@]1(O)CC[C@H]2[C@@H]3CCC4=CC(=O)C=C[C@]4(C)[C@H]3[C@@H](O)C[C@@]21C,"inconclusive: 33.5 µM [cytotoxic, partial curve, poor fit]",–
O=C(O)c1cc(=O)c2c3nc4ccccc4oc-3cc(=O)c2[nH]1,inconclusive: 29.8 µM [cytotoxic],–
CC(=O)OCC(=O)Nc1cc(C#N)cc(NC(=O)COC(C)=O)c1Cl,–,inactive: 7.01%
CC(C)COC(=O)COc1ccc(Cl)cc1Cl,"inconclusive: 54.4 µM [cytotoxic, partial curve]",–

SMILES,Potency,"activity change, negative = cytotoxicity"
ClCCCl,"inconclusive: 66.3 µM [cytotoxic, single point]",–
O=C1c2ccccc2C(=O)c2cc(O)ccc21,"inconclusive: 68.7 µM [cytotoxic, single point]",–
CCOC(=O)C1=NOC(c2ccccc2)(c2ccccc2)C1,"inconclusive: 68.6 µM [cytotoxic, single point]",–
O=S(=O)(O)CC(S)CS (stereo not given),active: 3.76 µM,–
CCN(CC)CC#CCOC(=O)C(O)(c1ccccc1)C1CCCCC1 (stereo not given),active: 26.6 µM,–
CSc1nc2cc(Oc3cccc(Cl)c3Cl)c(Cl)cc2[nH]1,active: 21.1 µM,–
CC(=O)Oc1cc(C)c(OC(C)=O)c2ccccc12,active: 23.7 µM,–
O=C1NCC2(CCN(CCc3ccccc3)CC2)O1,"inconclusive: 18.8 µM [cytotoxic, partial curve]",–
CC(=O)Nc1ccc(OC(=O)c2ccccc2O)cc1,–,inactive: 3.28%
O=C(O)c1cc(O)c2c(c1)[O][Bi][O]2,–,inactive: 6.31%
CCC(C(=O)OCCOCCN(CC)CC)c1ccccc1 (stereo not given),active: 21.1 µM,–
CCCCC[C@H](O)/C=C/[C@@H]1[C@@H](C/C=C\CCCC(=O)O)[C@@H](O)C[C@H]1O,inactive,–
C#C[C@]1(O)CC[C@H]2[C@@H]3CCC4=CC(=O)CC[C@@H]4[C@H]3C(=C)C[C@@]21CC,"inconclusive: 33.5 µM [cytotoxic, single point]",–
c1ccc([C@H]2CN3CCSC3=N2)cc1,"inconclusive: 33.5 µM [cytotoxic, single point]",–
O=C(O)c1cccc(/C=C2/C[C@@H]3[C@@H](/C=C/[C@@H](O)C4CCCCC4)[C@H](O)C[C@@H]3O2)c1,–,inactive: -1.36%
CC(=O)OC(C)OC(=O)C(C)c1ccc(-c2ccccc2)c(F)c1 (stereo not given),"inconclusive: 29.8 µM [rising, partial curve, poor fit]",–
CCCCCCCCCCOc1cc2c(=O)c(C(=O)OCC)c[nH]c2cc1OCC,–,inactive: 6.96%
Cc1ncc(C[n+]2csc(CCOP(=O)(O)O)c2C)c(N)n1,–,inactive: 3.31%
COc1ccc(OC)c(NC(=O)CC(C)=O)c1,–,inactive: 3.77%
C=CCN1C(=O)C(CC(C)C)NC1=S (stereo not given),inactive,–

# Source: PubChem BioAssay (Tox21)
